# Experimental data from the supplement of paper PMC11417369.
# ± gives the standard deviation of the averaged measurements. Some of the results follow.
# Test system: PfAP2-I AP2 domain 3 (GST-tagged)
# Assay: gcPBM binding intensity (ln(normalized median fluorescence intensity)); higher = stronger DNA binding
# In short: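 Alexa488 anti-GST antibody, scanned at 488 nm, detected GST-tagged P. falciparum DNA-binding domains that had been expressed in E. coli and incubated for 1 h on an Agilent 4 × 180k array. The array carried primer-extended double-stranded 36-bp intergenic genomic probes and negative controls. Binding intensity is the highest Masliner-normalised natural-log median intensity across replicate spots of either orientation of each probe.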
row,Sequence,gcPBM binding intensity (ln)
1,GATTCGATCTATATATGTACACATAAATATTTTTTG [XGTACX_site7015],7.89 ± 0.53
2,ATACACAAGAATATGTTGCACTTTTATATTCGTATG,9.36 ± 0.13
3,AATAAAATTGACCATTCACACAAGAAAAATTAATCA [CACACA_site5636],7.43 ± 0.5
4,CATAAGATTTTTACATGTACATATTTATAATATATT [XGTACX_site6578],7.91 ± 0.29
5,GATATATAAATTGACACACACATATATACCTATATA [CACACA_site6689],7.8 ± 0.59
6,TTCTTTTTTTTTTTTTCATGTATATTAAACTTTTCA [TGCATGCA_negctrl_site592],7.61 ± 0.42
7,AATATTTATATTAACTGTACAGAAAATATCTTTGCT [XGTACX_site8130],7.84 ± 0.3
8,TATGCCATGGCATAATGTACATAAGTGACCTCATAA [XGTACX_site1294],7.79 ± 0.6
9,AATATAAAAATGTTTACACACACACCGAAATATATT [CACACA_site8800],7.97 ± 0.68
10,AATTAGCTATTTAAAAATATATAAAATTTATATATA [CACACA_negctrl_site390],7.47 ± 0.2
11,ATCATATTGAATATTTAACACACATTTCGCTTAATT [CACACA_site8652],7.68 ± 0.8
12,GAAATAGAGAGACACACACACATATATTTATGTATT [CACACA_site7794],7.46 ± 0.5
13,AAAATGTAGAAATGGGTGCACACACATATATAATAT,10.28 ± 0.064
14,TATATATATAAAAGTTGTACAGTGTTTTATATAGTT [XGTACX_site7085],8.71 ± 0.26
15,TTATGTAAAATCGATACATGCATTAATCATTTTATA [TGCATGCA_site493],7.91 ± 0.84
16,TCATATTTCCATAGGAGTACATAAAAAAAATAATAT [XGTACX_site7601],8.2 ± 0.23
17,TATGATATGTTATACACACACGTATTTATGAATTGA [CACACA_site7591],7.79 ± 0.53
18,ATTTATATTAATGGATAAATAAATGTGTACTTGATA [CACACA_negctrl_site24],8.14 ± 0.099
19,TTCTTTATTATATGCACACGTACATATAATATATAT [CACACA_site2018],9.55 ± 0.26
20,AAAAAAAAAAAACACACACACATATATATATATATA [CACACA_site732],9.445 ± 0.049
21,ATCAACAAAACATACACACACATATAGATTTATATA [CACACA_site7415],7.81 ± 0.41
22,AAGAAAAAAAAAAAAAATATATATATAAGAACATAT [TGCATGCA_negctrl_site131],7.45 ± 0.67
23,GATAAAACGTTATGCACACGTACGTGGGTATTTATA [CACACA_site4954],10 ± 0.3

row,Sequence,gcPBM binding intensity (ln)
1,AACTATAAAAAAAATACACACATTACCAAAAATATA [CACACA_site1529],7.63 ± 0.59
2,AATCTGATTTGTATATGTACACAAATATTTTTATTT [XGTACX_site5295],7.73 ± 0.64
3,TATAAAAAAATATATATATATATATATATATAAATA [TGCATGCA_negctrl_site22],8.02 ± 0.16
4,TTTAATAATTATTAAAGTACAAAATAAATATTGAAT [XGTACX_site7538],7.89 ± 0.56
5,TGCTATATAATATGAGCACACATAAGATTTGGTGTT [CACACA_site8148],8.05 ± 0.6
6,ATATTTTTATTTAAACGTACATACACGTTGAAAAGA [XGTACX_site4567],7.85 ± 0.33
7,TTTTCAATTAATAATACACACATGTATATATCATTA [CACACA_site7539],7.84 ± 0.49
8,TAATGCATTATTAGAATACACACCATACGCATATTT [CACACA_site289],8.12 ± 0.52
9,TGATGTTGTAACAAAAGTACACACACATTTCTATAA [XGTACX_site5837],7.86 ± 0.15
10,TTTTTCTTTTGATGTTGTACATATATATTATATATA [XGTACX_site2754],7.99 ± 0.47
11,TTTTTCTTAAAAAATTGTACACATATATATATATAT [XGTACX_site542],9.65 ± 0.22
12,ATTAAGTTAAACATTACACACTATGTATTATTTATG [CACACA_site973],7.62 ± 0.73
13,TTTTTTTTTTTTAATACACACATATTTATATTTATT [CACACA_site7802],8.15 ± 0.6
14,CTAAGCTAAGTAAGCTGTACTTCACCTTTATACAGT [XGTACX_site3087],7.52 ± 0.69
15,CTATTTTTATATTATTGTACGTTGTTATTATATATA [XGTACX_site1469],8.08 ± 0.51
16,ATATAGAACACCTGTGCATGCAAGTGCTAAAAAATT [TGCATGCA_site213],9.93 ± 0.16
17,TAATATTATTTAGAGTGTACTCATAAATCAACAAAA [XGTACX_site5269],7.76 ± 0.4
18,TTTATATTTATATATACACACATATACATCCTATTT [CACACA_site3079],7.67 ± 0.52
19,ATATATATGGAAACAGTGCAATACATATATATATAT,10.74 ± 0.071
20,TTTTTTTTTTTTTGCACACACATAATAGGTACAAAT [CACACA_site3577],9.63 ± 0.11
21,CATATTTACTATCACACACACGATATATATAAATAT [CACACA_site1241],8.01 ± 0.47
22,TTTTTTTTTTTTTTCTCACACATTTAATGATAATAT [CACACA_site5513],8.02 ± 0.59
23,TTATACTAAATGAACACACACACATCTATATTTATA [CACACA_site6199],7.77 ± 0.44

row,Sequence,gcPBM binding intensity (ln)
1,AATTAAAATAATAATACACACATCATAGAAAAAGAC [CACACA_site292],8.79 ± 0.23
2,AAATTAGACTATAATACACACATAAAAAAAAAATCA [CACACA_site7672],7.79 ± 0.4
3,AATTGGGTAGGACATGCATGAGAAATTAATATTGCA [TGCATGCA_site356],8.1 ± 0.73
4,ATATATATATATATATGTACTAACCTTTTAAAATAT [XGTACX_site6488],9.27 ± 0.33
5,ATGTCAAACATTTGCACACAAAAAAATAAAAATTAA [CACACA_site692],9.03 ± 0.29
6,TATTACATTGTTGAATGTACTCATTTAAAATTTATA [XGTACX_site7987],7.6 ± 0.21
7,AATCAAAGCCCACATACACACACATATATATATATA [CACACA_site7987],9.38 ± 0.4
8,ATAAAATGAACCTTTTGTACATATATATATATATAT [XGTACX_site4610],9.54 ± 0.41
9,ATATTATATATATATAAACACACAAATATTTTTATA [CACACA_site8486],7.76 ± 0.28
10,AACATCTCATATCGTACTACACTCATATATATATAT [XGTACX_site170],9.29 ± 0.52
11,TTTAATAATAATAAAAGTACACAAATATAAAGGAAA [XGTACX_site5203],8.02 ± 0.51
12,TGAATATTTCTATATACACACATATATATATATATA [CACACA_site3451],9.46 ± 0.5
13,TCACGTATGTATATTACACACATACATATTATTCAC [CACACA_site4276],7.88 ± 0.73
14,ATATATATAAAATGTTGTACATATATATAAATAATA [XGTACX_site1661],7.96 ± 0.36
15,CTAAAATACAGACACACACACACATATATATATATA [CACACA_site4150],9.32 ± 0.45
16,GGGTTTTTAAAATGTAGTACATATGTAAACATCAAA [XGTACX_site1262],8.34 ± 0.13
17,TTAAAATAGGGCGAAGAAATTTTCTGTAAACATTTG [CACACA_negctrl_site1010],7.51 ± 0.61
18,ATATGCTTATATTATATATATAAGTCTATATATTTT [XGTACX_negctrl_site349],7.36 ± 0.41
19,CACATACAGACATACACACATACACATATACGCATA [CACACA_site1745],8.14 ± 0.4
20,ATATAATATGGTATTACACACTGTTAAAAGTATGGC [CACACA_site5190],7.77 ± 0.62
21,ATATATATTTTTATAACACACAATGAAGTACATTAC [CACACA_site8270],8.12 ± 0.33
22,TCTGTATATTTCGCGCGTACGAACAAATTGATAATT [XGTACX_site7965],8.06 ± 0.4
23,AAACAATAAAAGATTACACACATATATAGCATCTAT [CACACA_site5012],7.59 ± 0.54

row,Sequence,gcPBM binding intensity (ln)
1,TTTCATTTGTCGTTATGTACTTATTAAATATTATTA [XGTACX_site7709],8.05 ± 0.56
2,TAAAGTAAAGACATACTTATTTTCCATCCACTTCTT [CACACA_negctrl_site1288],7.84 ± 0.57
3,AAAAATTTATTTAAAAGTACATAAAATAAAGGTGGA [XGTACX_site7591],8.06 ± 0.39
4,ACTTTAGAAATAGAGGTGCTATTTTTATTACCACAC,9.81 ± 0.11
5,ATTTTAGAATTTAATACACACAAAAAAAAAAAATTA [CACACA_site3704],7.68 ± 0.38
6,TATTACATTATATAAACATGCAAAACTATATATTAT [TGCATGCA_site601],7.86 ± 0.66
7,AAAATAATAAAAAGGGGTACAAAGAAACAAATATAA [XGTACX_site296],8.29 ± 0.64
8,AAGGAAAAGTAAAGAAGTACTGTACCGCCAAAAAAA [XGTACX_site2607],8.08 ± 0.62
9,TTGATGTTGGTAGGATGTACGGTACCGGTAGTATTT [XGTACX_site6642],8.04 ± 0.74
10,AATTTATTTTTTTGATGTACATACAATTTATCACAA [XGTACX_site5936],8.01 ± 0.54
11,TATGTGCATATAAACTCACACATTGTATATTACATG [CACACA_site6106],10.3 ± 0.24
12,ATATATGTAGATATATGTACATATATAGGTAGATAT [XGTACX_site7589],8.55 ± 0.54
13,TTTATTAAAATATTCTCACACACCAAAATATGTATG [CACACA_site932],7.47 ± 0.57
14,ATAAAATAACACAACGTTGACAAATTTGGATGACTC [XGTACX_negctrl_site324],7.86 ± 0.72
15,AAAAAAAAAAAAAAAACACACATAAAAATATAATAA [CACACA_site3855],8.74 ± 0.5
16,ATTATATATAATATAGTGCATGTAAAAAATAAAACA,9.59 ± 0.057
17,AAGAATATTATAAACACACACTTTATAAAGAATTAT [CACACA_site4241],7.62 ± 0.62
18,TATATAATTGTCTTCACACACACATATATATATATA [CACACA_site2744],9.14 ± 0.28
19,TATTTTATTTGTATATTCATTTGTATAATATAAATA [TGCATGCA_negctrl_site267],7.37 ± 0.55
20,AAATGTAATATAAATAGTACATATTAAATAAAATTA [XGTACX_site6917],7.44 ± 0.35
